The whole screen tested about 200,000 compounds, of which about 4,500 (2.2%) were called active. Inconclusive results, whose numbers are uncertain, are shown with a selection of clear calls. Calls follow the shape of the dose curve; as a rule, active = well fitted inhibition curve with a large enough effect; inconclusive = small, poorly fitted or top-dose-only effect, or effect the other way; inactive = flat fitted curve, though single readings scatter. Potencies of inconclusive entries are doubtful fits and often do not repeat.
Target: Cruzipain (Trypanosoma cruzi) (UniProt P25779)
Experiment: qHTS Assay for Promiscuous and Specific Inhibitors of Cruzain (without detergent); also: nearly all actives have a fitted effect of over 40% in size;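 as to max response, negative = inhibition: plate controls were enzyme without inhibitor for no effect and buffer without enzyme for full effect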
Details: purified cruzain, Z-FR-AMC fluorescence, no detergent
Procedure, shortened: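 Purified cruzain at 1.5 nM, pre-incubated 15 min with compound at room temperature in 100 mM sodium acetate pH 5.5, 5 mM DTT, 0.00005% Triton X-100. Reaction started with 2 uM Z-FR-AMC; AMC fluorescence increase over 60 s gives rate.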
Potency is read from the fitted curve at half-maximal effect; tags tell the direction and shape of the fitted curve.

UniProt P25779, sequence (P25779 whole entry, looked up): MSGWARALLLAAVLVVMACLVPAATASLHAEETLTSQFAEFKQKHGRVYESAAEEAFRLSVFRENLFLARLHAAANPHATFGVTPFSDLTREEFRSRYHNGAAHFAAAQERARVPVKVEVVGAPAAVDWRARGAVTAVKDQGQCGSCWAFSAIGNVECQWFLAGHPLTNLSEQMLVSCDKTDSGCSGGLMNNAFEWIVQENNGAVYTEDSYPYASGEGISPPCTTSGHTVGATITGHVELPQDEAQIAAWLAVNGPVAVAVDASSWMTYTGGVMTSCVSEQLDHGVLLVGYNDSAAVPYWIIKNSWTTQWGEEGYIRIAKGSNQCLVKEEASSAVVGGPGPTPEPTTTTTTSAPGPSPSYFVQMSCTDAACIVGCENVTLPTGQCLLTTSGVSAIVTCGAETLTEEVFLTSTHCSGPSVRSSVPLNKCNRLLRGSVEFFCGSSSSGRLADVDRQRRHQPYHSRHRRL

SMILES | Potency | max response, negative = inhibition
CCCc1ccc(-c2cc(C(=O)NN3CCOCC3)c3ccccc3n2)cc1 | inconclusive: 31.6 µM [activator, single point] | –
COc1ccccc1-n1c2nc3ccccc3nc2c2c(=O)n(-c3cc(C)cc(C)c3)cnc21 | inconclusive: 39.8 µM [activator, single point] | –
O=C(Nc1sc2c(c1-c1nc3ccccc3[nH]1)CCCC2)C1CCCC1 | active: 12.6 µM | –
Cc1ccccc1OCC(=O)Nc1sc(C(=O)Nc2cccc(C)c2C)c(C)c1C#N | active: 7.94 µM | –
Cc1cc(=O)n(C(C)C(=O)NCc2ccccc2Cl)c2c1c(C)nn2-c1ccccc1 (stereo not drawn) | – | inactive: -17.8%
CCOc1ccccc1NC(=O)C1CCN(S(=O)(=O)Cc2ccccc2)CC1 | inconclusive: 39.8 µM [activator, single point] | –
N[C@@H](CCCC(=O)O)C(=O)O | inconclusive: 3.16 µM [inhibitor, single point] | –
CCOc1cc2[nH]c(=O)n(CC3CCC(C(=O)NCCCOC)CC3)c(=O)c2cc1OCC (stereo not drawn) | inconclusive: 31.6 µM [activator, partial curve] | –
Cc1cccc(NC(=O)/C=C/c2ccc([N+](=O)[O-])s2)c1 | inconclusive: 25.1 µM [inhibitor, single point] | –
Cn1cccc1C(C(=O)NC1CCCCC1)N(C(=O)Cc1cccs1)c1ccc2c(c1)OCO2 (stereo not drawn) | inconclusive: 39.8 µM [inhibitor, single point] | –
Cc1ccc(C(=O)NCC(=O)Nc2cccc(C(F)(F)F)c2)cc1 | inconclusive: 39.8 µM [inhibitor, single point] | –
Cc1ccc(S(=O)(=O)N2CCCc3cc(NC(=O)c4ccc(C(F)(F)F)cc4)ccc32)cc1 | inconclusive: 39.8 µM [inhibitor, single point] | –
COC(=O)c1ccccc1NC(=O)CSc1nc(O)cc(=O)n1C1CCCC1 | inconclusive: 31.6 µM [inhibitor, single point] | –
CCC1SC2=NC(C)=C(C(=O)OCCOC)C(/C=C/c3ccccc3OC)N2C1=O (stereo not drawn) | inconclusive: 39.8 µM [activator, single point] | –
CC(C)(C)c1ccc(/C=N/OCC(=O)NCc2ccc(F)cc2)cc1 | inconclusive: 25.1 µM [activator, partial curve] | –
CCNc1c(NC(=O)c2ccccc2OCC)c(=O)oc2ccccc12 | – | inactive: 19.3%
CCOc1ccccc1NS(=O)(=O)c1c(C(=O)OC)sc2cccc(F)c12 | – | inactive: -2.54%
Cc1cccc(N2CCN(C(=O)c3cn(C)c(=O)c4c3c3ccccc3n4C)CC2)c1C | inconclusive: 31.6 µM [activator, single point] | –
Cc1ccc(OCC(=O)OCc2cc(=O)n3nc(C4CCCCC4)sc3n2)cc1 | – | inactive: -7.47%
Cc1nc(Nc2cccc(C(F)(F)F)c2)nc2c1C(=O)CC(C)C2 (stereo not drawn) | active: 15.8 µM | –
Cc1cc(N2CCN(C)CC2)nc2ccc(NC(=O)Nc3ccccc3Cl)cc12 | – | inactive: 9.56%
COc1ccc(NC(=O)CCCN2C(=O)C(c3ccccc3)Oc3cccnc32)cc1OC (stereo not drawn) | inconclusive: 39.8 µM [activator, single point] | –

SMILES | Potency | max response, negative = inhibition
COc1ccc(NC(=O)c2oc3ccc4c(c3c2C)C(=O)CC(C)(C)O4)cc1OC | inconclusive: 39.8 µM [activator, single point] | –
CCc1ccc(OCC2c3cc(OC)c(OC)cc3CCN2C(=O)Cc2ccc(OC)c(OC)c2)cc1 (stereo not drawn) | inconclusive: 20 µM [activator, partial curve] | –
COc1cc2c(cc1NC(=O)C(C)Oc1ccc(Cl)cc1Cl)oc1ccccc12 (stereo not drawn) | inconclusive: 3.16 µM [inhibitor, single point] | –
COCCCNC(=O)c1c(N)n(/N=C/c2ccccn2)c2nc3ccccc3nc12 | inconclusive: 6.31 µM [activator, full curve] | –
COc1ccc(N(CC(=O)Nc2cccc(OC)c2)S(=O)(=O)c2c(C)nn(C)c2C)cc1 | inconclusive: 31.6 µM [activator, single point] | –
COc1cccc(C(=O)Oc2cc3c4c(c2)C(C)=CC(C)(C)N4C(=O)C3=O)c1 | – | inactive: 14.1%
CCn1c(CN2CCC(C)CC2)nc2cc(NC(=O)c3cccc([N+](=O)[O-])c3)ccc21 | – | inactive: -11.8%
COc1ccc(OC)c(CCNc2ncnc3onc(C)c23)c1 | – | inactive: 0.618%
O=C1N=C(N2CCOCC2)S/C1=C\c1ccc(-c2ccccc2Cl)o1 | active: 31.6 µM | –
COc1cc(C)ccc1N(CCCN1C(=O)c2cccc3cccc(c23)C1=O)C(=O)c1cccs1 | inconclusive: 31.6 µM [inhibitor, single point] | –
COc1ccc(NS(=O)(=O)c2cc3c4c(c2)CC(=O)N4CCC3)cc1Cl | – | inactive: -28.2%
Cc1cc(C)cc(NC(=O)Nc2c[nH]c(=O)[nH]c2=O)c1 | – | inactive: -13.1%
Cc1cccc(N2CCN(C(=O)c3cccc(-n4c(C)nc5cccnc54)c3)CC2C)c1 (stereo not drawn) | inconclusive: 31.6 µM [activator, single point] | –
COC(=O)C1=C(C)NC2=C(C(=O)c3ccccc32)C1c1ccc(-c2ccc(C(=O)O)cc2)o1 (stereo not drawn) | inconclusive: 39.8 µM [activator, single point] | –
Cc1cccc(CCNc2nc3ccccc3n3nnnc23)c1 | – | inactive: -12%
Cc1ccc(CCNC(=O)c2ccc(CNS(=O)(=O)c3ccc(F)cc3)cc2)cc1 | – | inactive: -4.64%
O=C1CC(=O)Nc2cc(S(=O)(=O)Nc3cccc(Br)c3)ccc2N1 | – | inactive: -5.38%
COc1ccc(C(C(=O)NCc2ccccc2)N(C(=O)Cn2nnc3ccccc32)c2ccc(OC)cc2)cc1 (stereo not drawn) | – | inactive: -2.72%
CCCCCCCCOC(=O)C(NC(=O)CCC(=O)Nc1ccc(S(N)(=O)=O)cc1)C(O)c1ccccc1 (stereo not drawn) | active: 7.94 µM | –
COc1ccc(CC(=O)Nc2ccc(-c3noc(COc4ccccc4C)n3)cc2)cc1 | inconclusive: 39.8 µM [inhibitor, single point] | –
COc1ccc2c(c1)CC1(CN2C)C(=O)NC(=O)N(CCc2ccccc2)C1=O (stereo not drawn) | inconclusive: 39.8 µM [activator, single point] | –

Reference: PubChem BioAssay AID1476 (National Center for Advancing Translational Sciences (NCATS), 2009)
